Reference: PubChem BioAssay AID652104 (National Center for Advancing Translational Sciences (NCATS), 2013)
Screen size: about 410,000 compounds; about 7,200 (1.8%) were called active. The shares of active, inactive and inconclusive entries below differ from those in the screen. Calls come from the whole dose curve; as a rule, active = well fitted activation curve with a large enough effect; inconclusive = small, poorly fitted or top-dose-only effect, or another doubt; inactive = no such curve, though single readings can be large or run the other way. No potency is given beside an inconclusive call; the fits are too rough.

Experiment: qHTS of TDP-43 Inhibitors; note: nearly all actives have a fitted effect of over 50% in size
Conditions: TDP-43 expressing yeast growth rescue, BacTiter-Glo, 24 h; series mostly up to 46.1 µM
Outline: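 In this qHTS, compounds that restore growth of yeast expressing TDP-43 appear as activators. Cells (OD600=0.02, galactose medium, raffinose-pregrown) are incubated with compound 24 hr at 30 deg C and growth is quantified by BacTiter-Glo.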
Potency is the fitted concentration of half-maximal effect; tags give direction and shape of the fitted curve.

SMILES	Potency
CSc1ccc(S(=O)(=O)Nc2ccc(F)cc2)cc1	active: 12.6 µM
CCOC(=O)C1CCN(S(=O)(=O)c2ccc(CC)cc2)CC1	inconclusive [activator, partial curve]
COc1ccc(-c2cnc(C)o2)cc1S(=O)(=O)Nc1cccc(C(F)(F)F)c1	inconclusive [activator, partial curve]
COc1ccc(-c2nc3ccc(C)cn3c2Cc2cccc(F)c2)cc1OC	inactive
CCN(c1ccccc1)S(=O)(=O)c1ccc(N)cc1	inconclusive [activator, full curve, poor fit]
O=C(/C=C/c1ccccc1)Nc1cccc(C(=O)NC2CC2)c1	inactive
Cc1ccc(NC(=O)CCCN2C(=O)COc3ccc(C)cc32)c(Cl)c1	inactive
COCc1c(C(=O)Nc2nnc(C3CC3)s2)oc2ccccc12	inconclusive [activator, single point]
COc1cccc(/C=C/c2nc(C#N)c(N3CCCCCC3)o2)c1	inconclusive [activator, partial curve]
COc1ccc(OC)c(NS(=O)(=O)c2ccc(SC)cc2)c1	inconclusive [activator, single point]
Nc1nc(SCc2ccc(F)cc2)ns1	active: 12.6 µM
COc1ccc(-c2nsc(SCC(=O)Nc3cc(C)on3)n2)cc1	inactive
COc1ccc(OC)c(-c2csc(NC(=O)CSc3ccccc3)n2)c1	inconclusive [activator, full curve]
C=C(C)CNC(=O)C1CCC(=O)N(CCCc2ccccc2)C1 (stereo not given)	inconclusive [activator, full curve]
Nc1c(OS(=O)(=O)c2ccccc2)cccc1OS(=O)(=O)c1ccccc1	inconclusive [activator, partial curve]
CCc1ccc(N2CC(c3nc4ccccc4n3Cc3ccccc3C)CC2=O)cc1 (stereo not given)	active: 28.2 µM
COc1ccc(NC(=O)COc2cccc3c2OC(C)(C)C3)cc1OC	inconclusive [activator, partial curve]
COc1c(Br)cc(C(N)=O)cc1OCc1ccccc1	inconclusive [activator, partial curve]
CN(CC(=O)Nc1ccccc1Cl)C(=O)c1cc2c(s1)CCCCC2	inactive
CCOc1c2ccc(C(=O)NC3CCCc4ccccc43)cc2nn1CC (stereo not given)	inconclusive [activator, partial curve]
COC(=O)CCCCCN1C(=O)NC(C2CC2)C(C(=O)OCc2ccccc2)=C1C (stereo not given)	inconclusive [activator, single point]
O=C(Nc1ccc(OCc2cc(=O)n3c4c(sc3n2)CCCC4)cc1)c1ccc(F)cc1	inactive
COc1ccc(NC(=S)N(CCCN2CCCC2)Cc2cccs2)cc1	inconclusive [activator, single point]

SMILES	Potency
Cc1sc2ncn3ncnc3c2c1C	inconclusive [activator, single point]
COc1ccc(-n2nnnc2SCC(=O)NCCc2ccccc2)cc1	inconclusive [activator, partial curve]
COc1ccccc1N1CCN(C2CCCCC2NS(=O)(=O)c2ccccc2)CC1 (stereo not given)	inactive
Cc1ccc(SCC(=O)O/N=C(\N)c2cccc([N+](=O)[O-])c2)cc1	inconclusive [activator, partial curve]
COc1ccc(OC)c(CNC(=O)c2cnc(N(C)C)nc2)c1	inconclusive [activator, partial curve]
O=C(Cc1ccccc1)Nc1cccc([N+](=O)[O-])c1	inconclusive [activator, single point]
CN(C(=O)CSc1nc2ccc(NC(=O)c3ccccc3)cc2s1)c1ccccc1	inactive
Oc1ccc(/C=C/c2nc(-c3ccccc3O)n(-c3ccccc3)n2)cc1	inconclusive [activator, single point]
O=C(c1ccc(N2CCOCC2)c([N+](=O)[O-])c1)N1CCN(c2ccccc2F)CC1	active: 14.1 µM
COc1ccccc1N1CCN(C(=O)c2cc3sccc3n2C)CC1	inconclusive [activator, single point]
CC(C)c1ccc(NC(=S)Nc2cccc3ccccc23)cc1	inconclusive [activator, single point]
NC(=O)C1CCN(C2=C(NS(=O)(=O)c3ccccc3)C(=O)c3ccccc3C2=O)CC1	inactive
NNc1nc2c(-c3ccc(Cl)cc3)nnn2c2ccccc12	inconclusive [activator, single point]
CCC1CCCCN1S(=O)(=O)c1ccc(NC(=O)c2snnc2C)cc1 (stereo not given)	inconclusive [activator, single point]
O=C(COC(=O)Cn1cnc2ccccc2c1=O)Nc1cc(Cl)ccc1[N+](=O)[O-]	inconclusive [activator, full curve, poor fit]
O=C(CCOc1ccccc1)Nc1ccccc1	inactive
COc1ccc(C)cc1NC(=O)CCNC(=O)Cn1cnc2ccccc2c1=O	inconclusive [activator, single point]
COc1ccc(C(=O)CC2(O)C(=O)N(CCc3ccccc3)c3ccc(Br)cc32)cc1OC (stereo not given)	inconclusive [activator, partial curve, poor fit]
Cc1ccc(C(=O)Nc2ccc3c(c2)N(C)C(=O)c2ccccc2S3)cc1	inconclusive [activator, partial curve]
COc1ccc2nc3oc(C(=O)N4CCCCC4)cc3cc2c1	inconclusive [activator, partial curve]
O=C(Cc1ccc(F)cc1)OCC(=O)c1cc2ccccc2o1	inconclusive [activator, single point]
Cc1ccccc1C(=O)NC(=S)NCc1ccccc1	inconclusive [activator, single point]
